Results are given in words; binding and its absence hold for the method and conditions named. Binding seen in cells or lysates may run through a third protein. Some results given as binding are weak or reduced against the parent protein; the word gives no strength. For some assays here: Sequences can lack the tags named with a protein. Each block holds one molecule with its values, some of them ahead of it.
What was measured:
GST-IRGM (human) = biological target: T1, GST-IRGM (human) (UniProt A1A4Y4); test: pull-down; GST-IRGM on glutathione beads incubated with in vitro translated [35S]-Myc-NLRP3 in NETN-E buffer (50 mM Tris pH 8.0, 100 mM NaCl, 6 mM EDTA, 6 mM EGTA, 0.5% NP-40, 1 mM DTT), 2 h at 4°C; autoradiography; only the target purified
T1 sequence: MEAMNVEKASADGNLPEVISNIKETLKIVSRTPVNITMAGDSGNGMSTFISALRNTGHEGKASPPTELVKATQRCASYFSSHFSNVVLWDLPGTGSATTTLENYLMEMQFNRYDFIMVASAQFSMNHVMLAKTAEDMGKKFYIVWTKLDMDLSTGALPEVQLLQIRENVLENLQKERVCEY

By UniProt entry, the sequences of proteins in these tests, tags left out. Where a name states a change or a piece, a line headed by the entry shows the natural chain unless it says otherwise. Chains listed by the source or under a name are the forms on record and can include a tag or linker. Residues count along the entry.
UniProt Q96P20: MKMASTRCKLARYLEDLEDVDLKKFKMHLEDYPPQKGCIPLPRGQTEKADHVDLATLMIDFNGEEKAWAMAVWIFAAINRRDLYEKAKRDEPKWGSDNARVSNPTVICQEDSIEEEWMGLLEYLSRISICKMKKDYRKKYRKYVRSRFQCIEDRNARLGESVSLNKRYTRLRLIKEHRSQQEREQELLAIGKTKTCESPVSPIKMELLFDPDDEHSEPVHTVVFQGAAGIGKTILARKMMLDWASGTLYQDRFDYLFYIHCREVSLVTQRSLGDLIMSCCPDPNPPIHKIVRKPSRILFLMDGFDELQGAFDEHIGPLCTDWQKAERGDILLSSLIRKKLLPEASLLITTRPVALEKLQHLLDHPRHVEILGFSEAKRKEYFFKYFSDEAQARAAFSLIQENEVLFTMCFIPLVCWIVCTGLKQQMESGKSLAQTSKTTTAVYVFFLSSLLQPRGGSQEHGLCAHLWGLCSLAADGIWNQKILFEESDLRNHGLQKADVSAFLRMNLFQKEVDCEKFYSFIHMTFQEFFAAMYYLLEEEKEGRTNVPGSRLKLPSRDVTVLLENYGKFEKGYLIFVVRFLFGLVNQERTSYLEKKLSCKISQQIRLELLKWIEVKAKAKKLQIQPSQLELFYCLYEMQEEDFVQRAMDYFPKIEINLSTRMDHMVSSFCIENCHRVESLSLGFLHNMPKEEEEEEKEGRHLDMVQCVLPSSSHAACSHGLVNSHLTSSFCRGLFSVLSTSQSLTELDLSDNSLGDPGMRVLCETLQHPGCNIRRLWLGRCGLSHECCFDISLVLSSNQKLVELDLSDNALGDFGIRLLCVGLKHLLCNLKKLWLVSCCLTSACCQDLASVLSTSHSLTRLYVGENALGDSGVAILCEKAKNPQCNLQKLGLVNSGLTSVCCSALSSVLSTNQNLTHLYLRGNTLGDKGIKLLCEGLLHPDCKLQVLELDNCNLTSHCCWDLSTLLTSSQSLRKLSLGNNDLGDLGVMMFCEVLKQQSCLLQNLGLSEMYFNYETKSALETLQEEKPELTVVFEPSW
FLAG-tagged PYRIN domain of NLRP3: residues 1-93 of Q96P20
FLAG-NLRP3-NACHT: residues 220-536 of Q96P20
UniProt Q676U5: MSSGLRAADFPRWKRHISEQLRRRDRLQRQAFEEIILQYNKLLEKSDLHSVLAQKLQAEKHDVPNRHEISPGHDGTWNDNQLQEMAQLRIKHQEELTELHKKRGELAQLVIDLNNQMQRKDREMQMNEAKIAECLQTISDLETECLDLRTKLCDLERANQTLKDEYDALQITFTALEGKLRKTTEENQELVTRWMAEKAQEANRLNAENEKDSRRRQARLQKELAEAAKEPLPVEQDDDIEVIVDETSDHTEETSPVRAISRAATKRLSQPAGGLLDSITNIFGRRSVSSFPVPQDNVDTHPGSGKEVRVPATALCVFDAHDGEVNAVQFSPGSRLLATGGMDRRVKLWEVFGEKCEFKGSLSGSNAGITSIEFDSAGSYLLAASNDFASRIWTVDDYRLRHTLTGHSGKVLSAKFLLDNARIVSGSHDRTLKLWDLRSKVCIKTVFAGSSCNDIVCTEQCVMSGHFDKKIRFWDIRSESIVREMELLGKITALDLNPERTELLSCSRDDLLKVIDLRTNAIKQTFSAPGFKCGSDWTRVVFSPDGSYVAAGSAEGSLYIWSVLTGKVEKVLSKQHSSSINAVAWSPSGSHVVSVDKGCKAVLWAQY
UniProt Q14457: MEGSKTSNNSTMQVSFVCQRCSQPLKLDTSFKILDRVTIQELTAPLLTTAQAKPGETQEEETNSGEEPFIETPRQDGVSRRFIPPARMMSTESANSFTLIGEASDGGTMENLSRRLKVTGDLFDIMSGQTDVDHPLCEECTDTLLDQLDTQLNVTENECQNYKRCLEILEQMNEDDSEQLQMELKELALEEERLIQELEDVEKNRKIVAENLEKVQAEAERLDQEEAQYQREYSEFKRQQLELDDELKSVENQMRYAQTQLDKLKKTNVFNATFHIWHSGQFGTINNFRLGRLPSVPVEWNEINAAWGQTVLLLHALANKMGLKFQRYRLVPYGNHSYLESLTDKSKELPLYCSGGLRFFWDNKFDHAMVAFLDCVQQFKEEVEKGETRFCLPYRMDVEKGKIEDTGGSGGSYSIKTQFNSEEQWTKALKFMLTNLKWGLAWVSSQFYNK

[1] = biological target: NLRP3 (NACHT, LRR, and PYD domains containing protein 3), exogenous, no tag named (UniProt Q96P20); test: co-IP; lysates of transfected HEK293T cells (some with co-expressed IRGM or NLRP3, some treated with chloroquine 50 uM, 5 hr); NP-40 lysis buffer, antibody at 4°C, Protein G Dynabeads, washed with ice cold PBS, western blot
GFP-IRGM (human) = biological target: T2, GFP-IRGM (human) (UniProt A1A4Y4); test: as above
T2 sequence: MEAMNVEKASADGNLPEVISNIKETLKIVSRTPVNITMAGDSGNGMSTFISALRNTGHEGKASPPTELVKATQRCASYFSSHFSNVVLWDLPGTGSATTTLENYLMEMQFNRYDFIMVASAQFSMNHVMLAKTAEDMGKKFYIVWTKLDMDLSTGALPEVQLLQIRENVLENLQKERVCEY

[2] = biological target: p62, tag not named for the experiment (UniProt Q13501); test: as above
[3] = biological target: T3, IRGM, exogenous, tag not named for the experiment (human) (UniProt A1A4Y4); test: as above
T3 sequence: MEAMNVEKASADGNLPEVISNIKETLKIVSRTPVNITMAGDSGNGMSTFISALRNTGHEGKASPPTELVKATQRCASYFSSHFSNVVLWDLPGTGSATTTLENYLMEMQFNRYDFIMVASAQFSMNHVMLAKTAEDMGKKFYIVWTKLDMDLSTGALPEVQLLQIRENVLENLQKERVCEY

[4] = biological target: T4, endogenous IRGM (human (endogenous in THP-1)) (UniProt A1A4Y4); test: co-IP; endogenous proteins from THP-1 lysates (basal, LPS, LPS + nigericin, S. typhimurium, control or NLRP3 siRNA); NP-40 lysis buffer, Protein G Dynabeads, western blot
T4 sequence: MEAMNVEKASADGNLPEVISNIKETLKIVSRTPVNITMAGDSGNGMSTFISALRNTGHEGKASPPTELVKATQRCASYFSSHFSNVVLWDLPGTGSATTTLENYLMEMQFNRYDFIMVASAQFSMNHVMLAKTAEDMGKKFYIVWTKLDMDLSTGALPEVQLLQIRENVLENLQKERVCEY

[5] = biological target: FLAG-tagged CARD domain of ASC (UniProt Q9ULZ3); test: co-IP; lysates of transfected HEK293T cells (some with co-expressed IRGM or NLRP3, some treated with chloroquine 50 uM, 5 hr); NP-40 lysis buffer, antibody at 4°C, Protein G Dynabeads, washed with ice cold PBS, western blot
[6] = biological target: FLAG-tagged PYRIN domain of NLRP3 (UniProt Q96P20); test: as above
[7] = biological target: FLAG-tagged PYRIN domain of ASC (UniProt Q9ULZ3); test: as above
FLAG-NLRP3-NACHT = FLAG-NLRP3-NACHT (UniProt Q96P20); test: as above
Flag-NLRP3 = Flag-NLRP3 (UniProt Q96P20); test: as above
FLAG-p62 = FLAG-p62 (UniProt Q13501); test: as above

binding (GST-IRGM (human)): binds
Molecule: [35S]-labeled Myc-NLRP3 (from UniProt Q96P20 1-1036)

binding [1]: binds
Molecule: ATG16L1 (from UniProt Q676U5 1-607)

binding (GFP-IRGM (human)): binds
Molecule: NLRP3 (NACHT, LRR, and PYD domains containing protein 3), exogenous, no tag named (from UniProt Q96P20 1-1036)

binding [2]: binds | binding [3]: binds
Molecule: ASC, exogenous, tag not named for the experiment (from UniProt Q9ULZ3 1-195)

binding [4]: binds
Molecule: endogenous NLRP3 (from UniProt Q96P20 1-1036)

binding [4]: binds
Molecule: endogenous ASC (apoptosis-associated speck-like protein containing a CARD) (from UniProt Q9ULZ3 1-195)

binding [1]: binds
Molecule: Beclin-1 (from UniProt Q14457 1-450)

binding [5]: no binding | binding [6]: binds weakly | binding [7]: binds | binding (FLAG-NLRP3-NACHT): binds
B1: IRGM, exogenous, tag not named for the experiment (protein, UniProt A1A4Y4 1-181)
chain: MEAMNVEKASADGNLPEVISNIKETLKIVSRTPVNITMAGDSGNGMSTFISALRNTGHEGKASPPTELVKATQRCASYFSSHFSNVVLWDLPGTGSATTTLENYLMEMQFNRYDFIMVASAQFSMNHVMLAKTAEDMGKKFYIVWTKLDMDLSTGALPEVQLLQIRENVLENLQKERVCEY

binding (Flag-NLRP3): binds | binding (FLAG-p62): binds
B2: GFP-IRGM (protein, UniProt A1A4Y4 1-181)
chain: MEAMNVEKASADGNLPEVISNIKETLKIVSRTPVNITMAGDSGNGMSTFISALRNTGHEGKASPPTELVKATQRCASYFSSHFSNVVLWDLPGTGSATTTLENYLMEMQFNRYDFIMVASAQFSMNHVMLAKTAEDMGKKFYIVWTKLDMDLSTGALPEVQLLQIRENVLENLQKERVCEY

From paper PMC6372082
